The record followed here is publication PMC2884952.

Results are given in words; binding and its absence hold for the method and conditions named. For some assays here: Binding seen in cells or lysates may run through a third protein. Some results given as binding are weak or reduced against the parent protein; the word gives no strength.

Experiment [1] concerns the target PIV5/V (yeast two-hybrid fusion) (parainfluenza virus 5) (UniProt P11207). As to the kind of experiment: two-hybrid; yeast two-hybrid assays, data not shown; bait and prey not told.
Experiment [2] has as its target GST-PIV5/V (V protein of parainfluenza virus 5, GST-tagged) (parainfluenza virus 5) (UniProt P11207). As to the kind of experiment: pull-down; only the target purified.

Consider “DDB1 (yeast two-hybrid fusion) (from UniProt Q16531 1-1140)”, for which the binding entry in experiment [1] is “binds”.
Still for that read-out and setting: the same measure for “STAT2 (yeast two-hybrid fusion) (from UniProt P52630 1-851)”: “binds”.
“human DDB1 (baculovirus-expressed) (from UniProt Q16531 1-1140)”: in experiment [2], the binding entry was “binds”.
Still for that read-out and setting: the same measure for “human STAT1 (baculovirus-expressed) (from UniProt P42224 1-750)”: “no binding”; for “human STAT2 (baculovirus-expressed) (from UniProt P52630 1-851)”: “binds”.
